This is one part of the list. Repeats are few or missing, and single values can be far off.
Tested on: A375
Assay: cell count relative to DMSO control; melanoma cells; higher = more viable cells
Settings: library dose: standard library concentration; 72 h
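Further: cells treated in 1,536-well plates, then fixed and DAPI-stained, with nuclei counted from automated high-throughput microscope images.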

Question: With O=C(Nc1cc(C(F)(F)F)cc(C(F)(F)F)c1)c1cc(Cl)ccc1O + O=C(Nc1ccccc1)c1cc([N+](=O)[O-])ccc1Cl [GW9662] (first compound 0.08 µM, partner dose 10 µM) as the compound, how does the cell count read?
Answer: Its cell count is 102%.

Question: For Cc1cc(N2CCOCC2)cc2[nH]c(-c3c(NC[C@@H](O)c4cccc(Cl)c4)cc[nH]c3=O)nc12 + O=S(=O)(c1ccccc1)N(CC(F)(F)F)c1ccc(C(O)(C(F)(F)F)C(F)(F)F)cc1 [T0901317] (first compound 1 µM, partner dose 7 µM), which cell count is on record?
Answer: The cell count was 116%.

Question: O=C(Nc1cc(C(F)(F)F)cc(C(F)(F)F)c1)c1cc(Cl)ccc1O + O=C1NC(=O)/C(=C/c2ccc(-c3ccc(F)cc3O)o2)S1 [AS252424] (first compound 0.08 µM, partner dose 5 µM) was tested. Which cell count did it give?
Answer: Its cell count is 149%.

Question: How did the cell count turn out when O=C(O)c1ccc2c(c1)nc(Nc1cccc(Cl)c1)c1ccncc12 + CCN(CC)CCCCNc1ncc2cc(-c3cc(OC)cc(OC)c3)c(NC(=O)NC(C)(C)C)nc2n1 [PD173074] (first compound 2 µM, partner dose 0.5 µM) was run?
Answer: The cell count was 111%.

Question: Which cell count does the source give for O=C(Nc1cc(C(F)(F)F)cc(C(F)(F)F)c1)c1cc(Cl)ccc1O + COC(=O)c1sccc1S(=O)(=O)Nc1ccc(Nc2ccccc2)cc1OC [GSK0660] (first compound 0.08 µM, partner dose 5 µM) here?
Answer: Its cell count is 122%.

Question: How did the cell count turn out when O=C(O)c1ccc2c(c1)nc(Nc1cccc(Cl)c1)c1ccncc12 + COc1cc(N2CCC(N3CCN(C)CC3)CC2)ccc1Nc1ncc(Cl)c(Nc2ccccc2S(=O)(=O)C(C)C)n1 [NVP-TAE684] (first compound 2 µM, partner dose 0.4 µM) was run?
Answer: Its cell count is 70.9%.

Question: How did the cell count turn out when Cc1cc(N2CCOCC2)cc2[nH]c(-c3c(NC[C@@H](O)c4cccc(Cl)c4)cc[nH]c3=O)nc12 + O=C1NC(=O)/C(=C/c2ccc(-c3ccc(F)cc3O)o2)S1 [AS252424] (first compound 1 µM, partner dose 5 µM) was run?
Answer: Its cell count is 150%.

Question: How did the cell count turn out when O=C(O)[C@@H]1[O][Sb](=[O])([O][Sb]2(=[O])[O][C@H]([C@H](O)CO)[C@H](O)[C@H](C(=O)O)[O]2)[O][C@H]([C@H](O)CO)[C@@H]1O (stereo partly drawn) [stibogluconate] + COc1cc(N2CCC(N3CCN(C)CC3)CC2)ccc1Nc1ncc(Cl)c(Nc2ccccc2S(=O)(=O)C(C)C)n1 [NVP-TAE684] (first compound 10 µM, partner dose 0.4 µM) was run?
Answer: The cell count was 106%.

Question: O=C(O)c1ccc2c(c1)nc(Nc1cccc(Cl)c1)c1ccncc12 + O=c1cc(-c2cccc3c2Sc2ccccc2S3)oc(N2CCOCC2)c1 [KU55933] (first compound 2 µM, partner dose 5 µM) was tested. Which cell count did it give?
Answer: The cell count was 87.1%.

Question: Which cell count does the source give for O=C(Nc1ccccc1)c1cc([N+](=O)[O-])ccc1Cl + COc1ccc(COc2ccc(Cc3cnc(N)nc3N)cc2OC)cc1 [GW2580] (first compound 10 µM, partner dose 5 µM) here?
Answer: Its cell count is 123%.

Question: How did the cell count turn out when O=C(O)[C@@H]1[O][Sb](=[O])([O][Sb]2(=[O])[O][C@H]([C@H](O)CO)[C@H](O)[C@H](C(=O)O)[O]2)[O][C@H]([C@H](O)CO)[C@@H]1O (stereo partly drawn) [stibogluconate] + O=c1cc(-c2cccc3c2Sc2ccccc2S3)oc(N2CCOCC2)c1 [KU55933] (first compound 10 µM, partner dose 5 µM) was run?
Answer: Its cell count is 134%.

Question: For O=C(O)c1ccc2c(c1)nc(Nc1cccc(Cl)c1)c1ccncc12 + COc1ccc(-c2ccc3c(N4CCOCC4)nc(N4C[C@@H](C)O[C@@H](C)C4)nc3n2)cc1CO [KU0063794] (first compound 2 µM, partner dose 0.1 µM), which cell count is on record?
Answer: Its cell count is 84.6%.

Question: For O=C(Nc1ccccc1)c1cc([N+](=O)[O-])ccc1Cl + CCN(CC)CCCCNc1ncc2cc(-c3cc(OC)cc(OC)c3)c(NC(=O)NC(C)(C)C)nc2n1 [PD173074] (first compound 10 µM, partner dose 0.5 µM), which cell count is on record?
Answer: The cell count was 141%.

Question: How did the cell count turn out when Cn1nnc2c(C(N)=O)ncn2c1=O [temozolomide] + COc1cc2ncnc(Nc3ccc(Oc4ccccc4)cc3)c2cc1OC [SrcI1] (first compound 10 µM, partner dose 10 µM) was run?
Answer: Its cell count is 174%.

Question: Which cell count does the source give for O=C(Nc1ccccc1)c1cc([N+](=O)[O-])ccc1Cl + COC(=O)c1sccc1S(=O)(=O)Nc1ccc(Nc2ccccc2)cc1OC [GSK0660] (first compound 10 µM, partner dose 5 µM) here?
Answer: Its cell count is 101%.

Question: For Cc1cc(N2CCOCC2)cc2[nH]c(-c3c(NC[C@@H](O)c4cccc(Cl)c4)cc[nH]c3=O)nc12 + c1cc(-c2cnn3cc(-c4ccc(OCCN5CCCCC5)cc4)cnc23)ccn1 [Dorsomorphin] (first compound 1 µM, partner dose 2 µM), which cell count is on record?
Answer: Its cell count is 86%.

Question: For Cc1cc(N2CCOCC2)cc2[nH]c(-c3c(NC[C@@H](O)c4cccc(Cl)c4)cc[nH]c3=O)nc12 + COc1ccc(COc2ccc(Cc3cnc(N)nc3N)cc2OC)cc1 [GW2580] (first compound 1 µM, partner dose 5 µM), which cell count is on record?
Answer: The cell count was 98.1%.

Question: With Cn1nnc2c(C(N)=O)ncn2c1=O [temozolomide] + O=C(Nc1ccccc1)c1cc([N+](=O)[O-])ccc1Cl [GW9662] (first compound 10 µM, partner dose 10 µM) as the compound, how does the cell count read?
Answer: The cell count was 116%.

Question: With O=C(Nc1cc(C(F)(F)F)cc(C(F)(F)F)c1)c1cc(Cl)ccc1O + COc1ccc(-c2ccc3c(N4CCOCC4)nc(N4C[C@@H](C)O[C@@H](C)C4)nc3n2)cc1CO [KU0063794] (first compound 0.08 µM, partner dose 0.1 µM) as the compound, how does the cell count read?
Answer: The cell count was 117%.

Question: O=C(O)[C@@H]1[O][Sb](=[O])([O][Sb]2(=[O])[O][C@H]([C@H](O)CO)[C@H](O)[C@H](C(=O)O)[O]2)[O][C@H]([C@H](O)CO)[C@@H]1O (stereo partly drawn) [stibogluconate] + COc1ccc(-c2ccc3c(N4CCOCC4)nc(N4C[C@@H](C)O[C@@H](C)C4)nc3n2)cc1CO [KU0063794] (first compound 10 µM, partner dose 0.1 µM) was tested. Which cell count did it give?
Answer: Its cell count is 95.1%.

Question: For O=C(O)c1ccc2c(c1)nc(Nc1cccc(Cl)c1)c1ccncc12 + COC(=O)c1sccc1S(=O)(=O)Nc1ccc(Nc2ccccc2)cc1OC [GSK0660] (first compound 2 µM, partner dose 5 µM), which cell count is on record?
Answer: The cell count was 91.1%.

Question: How did the cell count turn out when O=C(O)c1ccc2c(c1)nc(Nc1cccc(Cl)c1)c1ccncc12 + O=C(O)C(=O)Nc1sc2c(c1C(=O)O)CCNC2 [TCS401] (first compound 2 µM, partner dose 8.33333 µM) was run?
Answer: The cell count was 114%.

Question: For O=C(O)c1ccc2c(c1)nc(Nc1cccc(Cl)c1)c1ccncc12 + Oc1cc(-c2nc(-c3ccccc3)[nH]c2-c2ccncc2)ccc1Cl [L779450] (first compound 2 µM, partner dose 1 µM), which cell count is on record?
Answer: Its cell count is 63.8%.

Question: How did the cell count turn out when O=C(Nc1ccccc1)c1cc([N+](=O)[O-])ccc1Cl + O=C(O)C(=O)Nc1sc2c(c1C(=O)O)CCNC2 [TCS401] (first compound 10 µM, partner dose 8.33333 µM) was run?
Answer: The cell count was 146%.

Question: For Cn1nnc2c(C(N)=O)ncn2c1=O [temozolomide] + O=C1NC(=O)/C(=C/c2ccc(-c3ccc(F)cc3O)o2)S1 [AS252424] (first compound 10 µM, partner dose 5 µM), which cell count is on record?
Answer: Its cell count is 129%.

Question: Which cell count does the source give for O=C(Nc1ccccc1)c1cc([N+](=O)[O-])ccc1Cl + O=c1cc(-c2cccc3c2Sc2ccccc2S3)oc(N2CCOCC2)c1 [KU55933] (first compound 10 µM, partner dose 5 µM) here?
Answer: The cell count was 135%.

Question: Cn1nnc2c(C(N)=O)ncn2c1=O [temozolomide] + COC(=O)c1sccc1S(=O)(=O)Nc1ccc(Nc2ccccc2)cc1OC [GSK0660] (first compound 10 µM, partner dose 5 µM) was tested. Which cell count did it give?
Answer: Its cell count is 103%.

Question: For O=C(Nc1cc(C(F)(F)F)cc(C(F)(F)F)c1)c1cc(Cl)ccc1O + c1cc(-c2cnn3cc(-c4ccc(OCCN5CCCCC5)cc4)cnc23)ccn1 [Dorsomorphin] (first compound 0.08 µM, partner dose 2 µM), which cell count is on record?
Answer: Its cell count is 82.4%.

Question: How did the cell count turn out when O=C(O)[C@@H]1[O][Sb](=[O])([O][Sb]2(=[O])[O][C@H]([C@H](O)CO)[C@H](O)[C@H](C(=O)O)[O]2)[O][C@H]([C@H](O)CO)[C@@H]1O (stereo partly drawn) [stibogluconate] + O=C1NC(=O)/C(=C/c2ccc(-c3ccc(F)cc3O)o2)S1 [AS252424] (first compound 10 µM, partner dose 5 µM) was run?
Answer: Its cell count is 111%.

Question: How did the cell count turn out when O=C(O)[C@@H]1[O][Sb](=[O])([O][Sb]2(=[O])[O][C@H]([C@H](O)CO)[C@H](O)[C@H](C(=O)O)[O]2)[O][C@H]([C@H](O)CO)[C@@H]1O (stereo partly drawn) [stibogluconate] + CCCCCCCCCCCC1=C(O)C(=O)C=C(O)C1=O [Embelin] (first compound 10 µM, partner dose 6 µM) was run?
Answer: The cell count was 101%.

Question: For Cn1nnc2c(C(N)=O)ncn2c1=O [temozolomide] + N#Cc1c(O)c2c(-c3ccc(-c4ccccc4O)cc3)csc2[nH]c1=O [A769662] (first compound 10 µM, partner dose 10 µM), which cell count is on record?
Answer: Its cell count is 87.7%.

Question: Which cell count does the source give for Cc1cc(N2CCOCC2)cc2[nH]c(-c3c(NC[C@@H](O)c4cccc(Cl)c4)cc[nH]c3=O)nc12 + Cc1cc([N+](=O)[O-])ccc1NS(=O)(=O)c1cc(Cl)ccc1Cl [FH535] (first compound 1 µM, partner dose 5 µM) here?
Answer: The cell count was 80.4%.

Question: With O=C(Nc1cc(C(F)(F)F)cc(C(F)(F)F)c1)c1cc(Cl)ccc1O + COc1cc2ncnc(Nc3ccc(Oc4ccccc4)cc3)c2cc1OC [SrcI1] (first compound 0.08 µM, partner dose 10 µM) as the compound, how does the cell count read?
Answer: Its cell count is 159%.

Source: the supplement of paper PMC4604168 (melanoma cell lines)
